# Test results published in PubChem BioAssay AID2451 (National Center for Advancing Translational Sciences (NCATS), 2010).
# Among all 290,000 compounds or so, about 2,100 (0.72%) were called active. Inconclusive means that the source gave no clear call. Such entries were picked first, then a sample of the others. Calls come from the whole dose curve; as a rule, active = well fitted inhibition curve with a large enough effect; inconclusive = small, poorly fitted or top-dose-only effect, or effect the other way; inactive = flat fitted curve, though single readings scatter. Potencies of inconclusive entries are doubtful fits and often do not repeat.
# Molecular target: Fructose-bisphosphate aldolase (Giardia intestinalis (strain ATCC 50803 / WB clone C6)) (UniProt A8B2U2)
# Test: qHTS Assay for Inhibitors of Fructose-1,6-bisphosphate Aldolase from Giardia Lamblia; note: nearly all actives have a fitted effect of over 55% in size
# Conditions: purified Giardia FBPA; activity, negative = inhibition: at 59.6 µM (top of the series) unless noted
# How it was run: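 40 nM FBPA preincubated 10 min at RT with compound (up to 57.5 uM final), then substrate plus GAPDH/TPI/NAD/arsenate coupling and diaphorase/resazurin added. Fluorescence read after 20 min at RT, 525/598 nm.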
# % is set by controls: 0 for no effect and ±100 for the full control effect; potency is the fitted concentration of half-maximal effect; tags give direction and shape of the fitted curve.
# UniProt A8B2U2, sequence (A8B2U2 whole entry, looked up): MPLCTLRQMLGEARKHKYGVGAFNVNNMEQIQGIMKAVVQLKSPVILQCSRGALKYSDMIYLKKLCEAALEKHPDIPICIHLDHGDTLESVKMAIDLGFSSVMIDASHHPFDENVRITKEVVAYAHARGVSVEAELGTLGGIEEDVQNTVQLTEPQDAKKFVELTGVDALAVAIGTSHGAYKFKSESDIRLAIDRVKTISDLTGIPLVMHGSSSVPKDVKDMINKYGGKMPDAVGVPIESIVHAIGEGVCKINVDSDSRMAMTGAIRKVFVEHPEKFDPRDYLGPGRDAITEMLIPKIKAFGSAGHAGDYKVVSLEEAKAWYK
Compound,"activity, negative = inhibition",Potency
N#Cc1cc(-c2ccc(Cl)cc2)cn(Cc2c(Cl)cccc2Cl)c1=O,inactive: 5.45%,
CN1C(=O)NC(=O)/C(=C\c2ccc([N+](=O)[O-])o2)C1=O,,active: 17.7 µM
O=C(CCCN1C(=O)/C(=C/c2ccco2)SC1=S)Nc1ccccc1,,"inconclusive: 31.5 µM [inhibitor, single point]"
Cc1ccc(S(=O)(=O)N(C)/N=C/c2ccc(C(=O)O)cc2)cc1,,"inconclusive: 17.7 µM [activator, single point]"
CSc1nc(N(C)C)nc(N(C#N)CCOC(C)=O)n1,inactive: 6.61%,
COC(=O)CC1=C(C(=O)OC)C(c2ccncc2)C(C#N)=C(N)O1 (configuration not stated),,"inconclusive: 50 µM [inhibitor, partial curve, poor fit]"
CC1(C)CC(=O)c2c(oc3ccc(NS(=O)(=O)c4ccc(C(=O)O)cc4)cc23)C1,,"inconclusive: 15.8 µM [activator, single point]"
O=C(NC12CC3CC(CC(C3)C1)C2)c1ccc(COc2ccc(Cl)cc2[N+](=O)[O-])o1,inactive: -7.16%,
O=C(COc1ccc2ccccc2c1)NCC(=O)N/N=C/c1ccco1,,"inconclusive: 44.6 µM [inhibitor, single point]"
O=C(NCCC1=CCCCC1)c1cc2c(s1)CS(=O)(=O)C2,inactive: 12.6%,
O=c1oc2ccccc2c(N2CCCC2)c1[N+](=O)[O-],inactive: 4.64%,
Cc1nc2c(c3c1[nH]c1ccccc13)C(=O)CC(C)(C)C2,,"inconclusive: 19.9 µM [inhibitor, single point]"
C[C@H](CCC(=O)O)C[C@H](C)C[C@H](C)C(=O)/C=C(\O)[C@H](C)C[C@H](C)C/C=C/[C@@H](C)[C@@H](O)[C@@H](C)[C@@H](O)C[C@@H]1CC[C@@](C)([C@H]2CC[C@@](C)([C@@H](C)O)O2)O1,,"inconclusive: 17.7 µM [activator, single point]"
Cn1c(=O)c2c(=O)cc(N)[nH]c2n(C)c1=O,,"inconclusive: 15.8 µM [inhibitor, partial curve]"
CNC(=S)N/N=C/c1c(C(=O)OC)cnn1-c1ccc(F)cc1F,,"inconclusive: 17.7 µM [inhibitor, partial curve]"
COc1cccc(=O)c2c(C)n(-c3ccc(C(=O)O)cc3)c(C)c12,,"inconclusive: 15.8 µM [inhibitor, partial curve]"
Cc1ccc2[nH]c3c(NCCCN4CCCC4=O)ncnc3c2c1,inactive: -7.27%,
CNC(=S)N1CCn2cccc2C1c1ccc(F)cc1 (configuration not stated),,"inconclusive: 15.8 µM [inhibitor, partial curve]"
Cc1ccc(C(C(=O)NC2CCCC2)N(C(=O)Cc2cccs2)c2cccc(C)c2C)o1 (configuration not stated),inactive: -0.0965%,
O=C(CN1CCN(C2CCCCC2)CC1)Nc1cccc2ccccc12,,"inconclusive: 17.7 µM [inhibitor, partial curve]"
COc1ccc(C2C3=C(N=C4SCC(=O)N42)c2ccccc2CC3)cc1 (configuration not stated),,"inconclusive: 7.94 µM [inhibitor, full curve, poor fit]"
Cc1cc(C)nc(Nc2ncc(O)n2-c2ccc(C)c(Cl)c2)n1,inactive: -0.303%,
CN(C(=O)COC(=O)c1cc(-c2ccco2)nc2ccccc12)C1CCS(=O)(=O)C1 (configuration not stated),,"inconclusive: 5 µM [inhibitor, full curve]"
Cc1[nH]n(C(N)=S)c(=O)c1N=Nc1ccc(S(=O)(=O)N2CCCCCC2)cc1,,"inconclusive: 19.9 µM [activator, single point]"

Compound,"activity, negative = inhibition",Potency
CCOc1cc(/C=C/c2cc(C(=O)O)c3ccccc3n2)ccc1O,,"inconclusive: 17.7 µM [inhibitor, single point]"
O=C(CN1CCOCC1)Nc1c2c(nc3ccccc13)N(Cc1ccccc1)CC2,,active: 15.8 µM
CCOC(=O)c1cnc2ccc(Cl)cc2c1NCCN(C)C,,"inconclusive: 17.7 µM [inhibitor, partial curve]"
COCCOC(=O)c1sc(=S)n(CCOC)c1N,,"inconclusive: 28.1 µM [inhibitor, partial curve, poor fit]"
CCCS(=O)(=O)N1CCN(c2ccccc2F)CC1,,"inconclusive: 31.5 µM [activator, single point]"
Cc1ccc(CCNC(=O)C23CN(Cc4ccccc4)CC2C(c2cccc([N+](=O)[O-])c2)=NO3)cc1 (configuration not stated),inactive: 7.56%,
CCOC(=O)c1c(NC(=O)Cc2ccccc2)sc2c1CCN(CC)C2,,"inconclusive: 31.6 µM [inhibitor, partial curve]"
S=c1[nH]c(-c2ccccc2)cn1/N=C/c1cccnc1,inactive: -10.6%,
O=[N+]([O-])c1ccc(-c2ccc(/C=N/O)o2)cc1,inactive: -11.1%,
O=C(Nc1cnn(Cc2ccc(F)cc2)c1)c1noc2c1CCCC2,,"inconclusive: 19.9 µM [inhibitor, partial curve]"
COc1ccc(-n2[nH]c(C)cc2=O)cc1,,"inconclusive: 1.41 µM [inhibitor, full curve, poor fit]"
CCCn1c(-c2ccc(F)cc2)n[nH]c1=S,inactive: 11.2%,
O=[N+]([O-])c1ccccc1-c1ccc(C(=S)N2CCCCC2)o1,,"inconclusive: 9.98 µM [inhibitor, partial curve]"
CN(C1=C(N2CCCCC2)C(=O)c2ccccc2C1=O)c1ccccc1,,"inconclusive: 3.15 µM [inhibitor, full curve]"
Cc1ccccc1OCCCCn1cnc2ccccc21,inactive: 4.71%,
CCCCn1c(SCC(=O)N2CCCCC2)nc2cc(S(N)(=O)=O)ccc21,inactive: -19.2%,
OCCN1CCN(C(=S)c2ccc(Cl)c(Cl)c2)CC1,,active: 12.6 µM
CC1Nc2nc(N(C)C)[nH]c(=O)c2NC1C (configuration not stated),,"inconclusive: 17.7 µM [inhibitor, single point]"
CCN1CCN(CCC(=O)Nc2cccc(C)c2)CC1,,"inconclusive: 17.8 µM [inhibitor, partial curve]"
CCCCNC(=O)CO/N=C(\C)c1cc2ccccc2o1,inactive: 26.6%,
COc1ccccc1C1Nc2cccc3cccc(c23)N1,,"inconclusive: 1.41 µM [inhibitor, full curve]"
O=C(NC1CCCCC1)C(c1ccncc1)N(Cc1ccc2c(c1)OCO2)C(=O)C(F)(F)F (configuration not stated),,"inconclusive: 28.1 µM [inhibitor, single point]"
O=C(/C=C/c1ccc(F)cc1)NC(=S)N1C[C@H]2C[C@H](C1)c1cccc(=O)n1C2,,"inconclusive: 7.08 µM [inhibitor, partial curve]"
CCC(C)NCCOc1ccccc1C (configuration not stated),,"inconclusive: 5 µM [inhibitor, partial curve]"

Compound,"activity, negative = inhibition",Potency
CCOc1ccc2nc(N=Nc3c(O)[nH]c(=O)[nH]c3=O)sc2c1,,"inconclusive: 15.8 µM [inhibitor, single point]"
Cc1[nH]n(-c2ccccc2)c(=O)c1C=NCC1CCCO1 (configuration not stated),inactive: 2.64%,
COc1ccc(C(=S)N2CCC(C(N)=O)CC2)cc1Br,,"inconclusive: 35.4 µM [inhibitor, single point]"
Cn1c(=O)[nH]c(=O)c2c1nc(SCC(=O)O)n2Cc1ccccc1,,active: 14.1 µM
CCOC(=O)C1CCN(C(=O)C2(NC(=O)Nc3ccccc3C)CCCCC2)CC1,inconclusive: 42.8% [activator],
O=C(CC1C(=O)NCCN1Cc1ccc(F)cc1)NCCN1CCCc2ccccc21 (configuration not stated),,"inconclusive: 15.8 µM [inhibitor, partial curve]"
Cc1ccccc1OCC(=O)Nc1nc2ccccc2[nH]1,,"inconclusive: 15.8 µM [inhibitor, partial curve]"
Clc1ccccc1OCCCCN1CCNCC1,,"inconclusive: 28.2 µM [inhibitor, partial curve]"
COc1cccc(C=Nc2ccccc2C(=O)Nc2ccccc2)c1O,,"inconclusive: 4.46 µM [inhibitor, partial curve, poor fit]"
CC1=C(C(=O)N2CCOCC2)C(c2ccsc2)C2=C(CCCC2=O)N1 (configuration not stated),,"inconclusive: 17.7 µM [inhibitor, partial curve]"
COc1ccccc1NC(=O)Cc1nn(C)c(=O)c2ccccc12,inactive: 0.919%,
Cc1ccc(CN2CCCC(C(=O)N3CCCC3)C2)cc1 (configuration not stated),,active: 25.1 µM
CCOC(=O)CN1C(=O)c2ccccc2Sc2ncccc21,inactive: 5.97%,
Nc1ccc(N2CCCCC2)c(S(=O)(=O)Nc2ccccc2Cl)c1,,active: 15.8 µM
COc1ccc(C(c2sc3nc(C)nn3c2O)N2CCc3ccccc3C2)cc1 (configuration not stated),,"inconclusive: 14.1 µM [inhibitor, partial curve]"
Cc1ccc(-c2csc(N3CCN(c4ccc5nc(-c6ccncc6)n(CCN6CCCCC6)c5c4)CC3)n2)cc1,,"inconclusive: 15.8 µM [inhibitor, partial curve]"
CCN(CC)CCN(C(=O)C1=COCCO1)c1nc2c(OC)ccc(OC)c2s1,,"inconclusive: 31.6 µM [inhibitor, partial curve]"
COc1ccccc1C(=O)NNc1ncc(C)s1,,"inconclusive: 31.6 µM [inhibitor, single point]"
COc1cccc(NC2=C(NCCO)C(=O)c3ccccc3C2=O)c1,,"inconclusive: 17.8 µM [inhibitor, partial curve]"
CCCCOc1ccc(-c2[nH]ncc2C=O)cc1,inactive: 1.7%,
Cc1ccc(OCCOCCN2CCCCC2)c([N+](=O)[O-])c1,,active: 19.9 µM
CC(CCN1CCN(CCO)CC1)c1ccccc1 (configuration not stated),,"inconclusive: 28.2 µM [inhibitor, partial curve]"
COc1ccc(SCCc2ccncc2)cc1,,"inconclusive: 15.8 µM [inhibitor, partial curve]"
CCCC(=O)NC(=S)Nc1sc2c(c1C(N)=O)CCC2,,"inconclusive: 15.8 µM [inhibitor, single point]"
